The other results are listed elsewhere or left out. The full chains were built here from the parent and the listed change. Values near 0.05 are background.
B1: TEV protease; numbered along this chain (parent)
chain: MGESLFKGPRDYNPISSSICHLTNESDGHTTSLYGIGFGPFIITNKHLFRRNNGTLVVQSLHGVFKVKDTTTLQQHLVDGRDMIIIRMPKDFPPFPQKLKFREPQREERICLVTTNFQTKSMSSMVSDTSCTFPSGDGIFWKHWIQTKDGQCGSPLVSTRDGFIVGIHSASNFTNTNNYFTSVPKNFMELLTNQEAQQWVSGWRLNADSVLWGGHKVFMVKPEEPFQPVKEATQL

Variants of: B1
Assay: raw area under fraction-flipped curve 0-4 h after induction (AUC4h, not background-subtracted), DNA-recorder readout of cleavage of the substrate (dimensionless); higher = more cleavage of the substrate by the protease variant
Conditions: temperature: 34 °C; time window: 0-4 h after rhamnose induction
Method: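 In vivo DNA recorder in E. coli TOP10(DE3) ΔrhaA at 34 °C. Each TEVp single-site mutant (parent TEVp 0) is paired with a single-site variant of the 7-mer TEVs (canonical ENLYFQ|S). The substrate sits between flexible linkers in a Bxb1-sfGFP-TEVs-SsrA fusion, so cleavage stabilises Bxb1 and speeds flipping of a recombination array, read by NGS. The value is the raw area under the fraction-flipped curve over 0-4 h after rhamnose induction (AUC4h), with ≥20 reads per time point. It is not background-subtracted; inactive controls average about 0.047.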
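Note: Bxb1 expression induced with 0.2% (w/v) L-rhamnose at OD600 near 0.5, cultures sampled hourly, flipped fraction per protease–substrate barcode pair counted by paired-end Illumina sequencing.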

Variant | area with substrate ENLYFQA | area with substrate ENLYFQC | area with substrate ENLYFQF | area with substrate ENLYFQH | area with substrate ENLYFQI | area with substrate ENLYFQK | area with substrate ENLYFQL | area with substrate ENLYFQM | area with substrate ENLYFQN | area with substrate ENLYFQQ | area with substrate ENLYFQR | area with substrate ENLYFQS | area with substrate ENLYFQT | area with substrate ENLYFQV | area with substrate ENLYFQW | area with substrate ENLYFQY | area with substrate ENLYFQE | area with substrate ENLYFQG | area with substrate ENLYFQP | area with substrate ENLYFQD
MGESLFKGPRDYNPISSCICHLTNESDGHTTSLYGIGFGPFIITNKHLFRRNNGTLVVQSLHGVFKVKDTTTLQQHLVDGRDMIIIRMPKDFPPFPQKLKFREPQREERICLVTTNFQTKSMSSMVSDTSCTFPSGDGIFWKHWIQTKDGQCGSPLVSTRDGFIVGIHSASNFTNTNNYFTSVPKNFMELLTNQEAQQWVSGWRLNADSVLWGGHKVFMVKPEEPFQPVKEATQL [S18C] | 0.11 | 0.101 | 0.0744 | 0.0739 | 0.061 | 0.0647 | 0.0572 | 0.0928 | 0.082 | 0.0699 | 0.0601 | 0.104 | 0.0825 | 0.046 | 0.0714 | 0.0673 | – | – | – | –
MGESLFKGPRDYNPISSSICHLPNESDGHTTSLYGIGFGPFIITNKHLFRRNNGTLVVQSLHGVFKVKDTTTLQQHLVDGRDMIIIRMPKDFPPFPQKLKFREPQREERICLVTTNFQTKSMSSMVSDTSCTFPSGDGIFWKHWIQTKDGQCGSPLVSTRDGFIVGIHSASNFTNTNNYFTSVPKNFMELLTNQEAQQWVSGWRLNADSVLWGGHKVFMVKPEEPFQPVKEATQL [T23P] | 0.0437 | 0.0439 | – | 0.0497 | 0.0457 | – | 0.0316 | 0.0466 | 0.0394 | – | 0.0433 | 0.0443 | 0.0447 | 0.0288 | 0.0298 | 0.0429 | 0.0728 | 0.0453 | 0.0467 | –
MGESLFKGPRDYNPISSSICHLTYESDGHTTSLYGIGFGPFIITNKHLFRRNNGTLVVQSLHGVFKVKDTTTLQQHLVDGRDMIIIRMPKDFPPFPQKLKFREPQREERICLVTTNFQTKSMSSMVSDTSCTFPSGDGIFWKHWIQTKDGQCGSPLVSTRDGFIVGIHSASNFTNTNNYFTSVPKNFMELLTNQEAQQWVSGWRLNADSVLWGGHKVFMVKPEEPFQPVKEATQL [N24Y] | 0.0802 | 0.0882 | – | 0.0769 | 0.0644 | – | 0.0668 | 0.085 | 0.0759 | – | – | 0.0992 | 0.0708 | 0.0637 | 0.0936 | 0.0815 | 0.0599 | 0.0763 | – | 0.056
MGESLFKGPRDYNPISSSICHLTHESDGHTTSLYGIGFGPFIITNKHLFRRNNGTLVVQSLHGVFKVKDTTTLQQHLVDGRDMIIIRMPKDFPPFPQKLKFREPQREERICLVTTNFQTKSMSSMVSDTSCTFPSGDGIFWKHWIQTKDGQCGSPLVSTRDGFIVGIHSASNFTNTNNYFTSVPKNFMELLTNQEAQQWVSGWRLNADSVLWGGHKVFMVKPEEPFQPVKEATQL [N24H] | 0.076 | – | – | – | 0.0372 | 0.0516 | 0.0729 | 0.0792 | 0.0613 | 0.0649 | 0.0631 | 0.0855 | – | 0.0581 | 0.0606 | – | 0.0644 | 0.0949 | 0.0581 | –
MGESLFKGPRDYNPISSSICHLTWESDGHTTSLYGIGFGPFIITNKHLFRRNNGTLVVQSLHGVFKVKDTTTLQQHLVDGRDMIIIRMPKDFPPFPQKLKFREPQREERICLVTTNFQTKSMSSMVSDTSCTFPSGDGIFWKHWIQTKDGQCGSPLVSTRDGFIVGIHSASNFTNTNNYFTSVPKNFMELLTNQEAQQWVSGWRLNADSVLWGGHKVFMVKPEEPFQPVKEATQL [N24W] | 0.0742 | 0.0822 | – | – | 0.0599 | 0.0676 | 0.0598 | 0.0664 | – | – | 0.0528 | 0.075 | 0.0678 | 0.0825 | 0.0733 | 0.0617 | – | 0.0629 | 0.0565 | 0.063
MGESLFKGPRDYNPISSSICHLTRESDGHTTSLYGIGFGPFIITNKHLFRRNNGTLVVQSLHGVFKVKDTTTLQQHLVDGRDMIIIRMPKDFPPFPQKLKFREPQREERICLVTTNFQTKSMSSMVSDTSCTFPSGDGIFWKHWIQTKDGQCGSPLVSTRDGFIVGIHSASNFTNTNNYFTSVPKNFMELLTNQEAQQWVSGWRLNADSVLWGGHKVFMVKPEEPFQPVKEATQL [N24R] | 0.0602 | 0.0682 | – | 0.0725 | 0.0602 | 0.0567 | 0.0436 | 0.0864 | 0.0699 | – | 0.068 | 0.0719 | 0.0606 | – | 0.0585 | – | – | 0.0778 | – | 0.0856
MGESLFKGPRDYNPISSSICHLTQESDGHTTSLYGIGFGPFIITNKHLFRRNNGTLVVQSLHGVFKVKDTTTLQQHLVDGRDMIIIRMPKDFPPFPQKLKFREPQREERICLVTTNFQTKSMSSMVSDTSCTFPSGDGIFWKHWIQTKDGQCGSPLVSTRDGFIVGIHSASNFTNTNNYFTSVPKNFMELLTNQEAQQWVSGWRLNADSVLWGGHKVFMVKPEEPFQPVKEATQL [N24Q] | 0.0764 | 0.0926 | 0.0677 | 0.0789 | 0.0665 | 0.0603 | 0.0652 | 0.0882 | 0.0556 | – | – | 0.0906 | 0.0649 | 0.0593 | 0.0606 | – | – | 0.0788 | 0.0554 | –
MGESLFKGPRDYNPISSSICHLTCESDGHTTSLYGIGFGPFIITNKHLFRRNNGTLVVQSLHGVFKVKDTTTLQQHLVDGRDMIIIRMPKDFPPFPQKLKFREPQREERICLVTTNFQTKSMSSMVSDTSCTFPSGDGIFWKHWIQTKDGQCGSPLVSTRDGFIVGIHSASNFTNTNNYFTSVPKNFMELLTNQEAQQWVSGWRLNADSVLWGGHKVFMVKPEEPFQPVKEATQL [N24C] | 0.0801 | 0.084 | 0.0711 | 0.0759 | 0.0581 | 0.0626 | 0.0645 | 0.0749 | 0.0912 | 0.0615 | 0.0554 | 0.0796 | 0.0607 | – | 0.0702 | 0.0648 | – | – | 0.0527 | 0.0493
MGESLFKGPRDYNPISSSICHLTTESDGHTTSLYGIGFGPFIITNKHLFRRNNGTLVVQSLHGVFKVKDTTTLQQHLVDGRDMIIIRMPKDFPPFPQKLKFREPQREERICLVTTNFQTKSMSSMVSDTSCTFPSGDGIFWKHWIQTKDGQCGSPLVSTRDGFIVGIHSASNFTNTNNYFTSVPKNFMELLTNQEAQQWVSGWRLNADSVLWGGHKVFMVKPEEPFQPVKEATQL [N24T] | 0.0764 | 0.103 | – | – | 0.0664 | 0.0645 | 0.0617 | 0.0753 | 0.0543 | 0.0382 | 0.0701 | 0.0757 | 0.0576 | 0.061 | 0.0634 | 0.0746 | – | – | 0.0621 | –

— the supplement of paper PMC12217912
